Data: PubChem BioAssay AID686979 (National Center for Advancing Translational Sciences (NCATS), 2013)
Several values for one entry are separate records, joined by “and”; a condition that tells them apart may be missing. Equal values may be shown once. Screen size: about 420,000 compounds; about 50,000 (12%) were called active. The shares of active, inactive and inconclusive entries below differ from those in the screen. Calls come from the whole dose curve; as a rule, active = well fitted inhibition curve with a large enough effect; inconclusive = small, poorly fitted or top-dose-only effect; inactive = flat fitted curve, though single readings scatter. Potencies beside an inconclusive call are fits to weak or partial responses and may not hold up.

Assay: qHTS for Inhibitors of human tyrosyl-DNA phosphodiesterase 1 (TDP1): qHTS in cells in presence of CPT; note: nearly all actives have a fitted effect of over 55% in size
Conditions: chicken DT40 Tdp1-/-;hTDP1 cells + 20 nM CPT, ATP luminescence, 48 h; activity change, negative = growth inhibition: at 46.2 µM (top of the series) unless noted
In short: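 Chicken DT40 Tdp1-/- cells complemented with human TDP1, 400 cells/well, exposed to compounds plus 20 nM camptothecin for at least 48 h at 37 C; viability read as ATP content by CellTiter-Glo luminescence.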
% is set by controls: 0 for no effect and ±100 for the full control effect; potency is the fitted concentration of half-maximal effect; tags give direction and shape of the fitted curve.

| SMILES | Potency | activity change, negative = growth inhibition |
| --- | --- | --- |
| Cn1cc(CN(CCO)Cc2cccs2)c(-c2cccc(Cl)c2)n1 | inconclusive: 20.6 µM [inhibitor, single point] |  |
| CC1(C(=O)NC2CCCCCCC2)CCC(=O)N1Cc1cccs1 (stereo unspecified) | inactive |  |
| O=C(Cn1nnc(-c2ccccc2NC(=O)c2ccco2)n1)Nc1ccccc1 | inactive |  |
| COc1ccccc1NS(=O)(=O)c1cccc(NC(=O)c2cncc(Br)c2)c1 | inconclusive: 29.1 µM [inhibitor, single point] |  |
| CCOC(=O)C1=C(C)OC(N)=C(C#N)C1c1ccsc1 (stereo unspecified) | inactive |  |
| COc1ccc(CSc2nc3ccncc3n2Cc2nc(-c3ccc(OC)c(OC)c3)oc2C)cc1 | active: 25.9 µM |  |
| Cc1ccc(-c2nc(N)c3c(-c4ccc(C)cc4)nn(C(C)(C)C)c3n2)cc1 | inconclusive: 29.1 µM [inhibitor, single point] |  |
| COc1ccc(C(=O)Nc2ccc(S(=O)(=O)N3CCOCC3)cc2)cc1 | inactive |  |
| COc1ccc(NC(=O)CN(C)CC(=O)Nc2cccc3ccccc23)c(OC)c1 | inconclusive: 16.4 µM [inhibitor, single point] |  |
| COc1ccc(Br)cc1CNC(=O)CCC(=O)N1CCSc2ccccc21 | inconclusive: 16.4 µM [inhibitor, single point] and inconclusive: 29.1 µM [inhibitor, single point] |  |
| CC(C)c1c(C(=O)N2CCN(CCO)CC2)cnn1-c1nccc(-c2cccs2)n1 |  | inactive: 25.6% [at 9.04 µM] |
| O=C(Nc1ccc(S(=O)(=O)NCc2ccco2)cc1)c1ccc2ccccc2n1 | inconclusive: 20.6 µM [inhibitor, single point] |  |
| COc1ccc(-c2cc(C(F)(F)F)nc(NCc3ccco3)n2)cc1OC | inactive |  |
| Cc1[nH]c2ccc(OCc3ccccc3)cc2c1CCN1C(=O)OC(C)(C)C1(C)O (stereo unspecified) | inconclusive: 20.6 µM [inhibitor, partial curve] |  |
| CCCCCOC(=O)Cn1c(N2CCOCC2)nc2c1c(=O)[nH]c(=O)n2C | inactive |  |
| Cc1cc(C)n2c(Nc3ccc4c(c3)OCCO4)c(C(C)C)nc2n1 | active: 8.2 µM |  |
| O=C(CSc1nc2c([nH]c3ccccc32)c(=O)n1-c1ccc(F)cc1)N1CCCCCC1 | inconclusive: 23.1 µM [inhibitor, partial curve] |  |
| COc1ccccc1CNC(=O)Nc1ccc2c(c1)N(C)C(=O)c1ccccc1S2 | inconclusive: 25.9 µM [inhibitor, single point] |  |
| COc1cc(C(=O)N/C(=C\c2cn(S(=O)(=O)N(C)C)c3ccccc23)C(=O)N2CCCC2)cc(OC)c1OC | inconclusive: 23.1 µM [inhibitor, single point] |  |
| c1ccc2c(c1)Cn1c-2nc2ccccc21 | inconclusive: 29.1 µM [inhibitor, single point] |  |
| COc1cc(NC(=O)CCc2c(C)nc3c(c(C)nn3-c3ccccc3)c2C)cc(OC)c1OC | active: 14.6 µM |  |
| CN1C(=O)C2CCCCN2c2ccc(C(=O)NCc3ccccc3Br)cc21 (stereo unspecified) | inconclusive: 29.1 µM [inhibitor, single point] |  |
| Cc1ccc(NC(=O)COc2ccc(CCO)cc2-n2nc3ccccc3n2)cc1C | inconclusive: 20.6 µM [inhibitor, single point] |  |

| SMILES | Potency | activity change, negative = growth inhibition |
| --- | --- | --- |
| Cc1cc(NC(=O)c2nn3cccnc3c2Cl)no1 | inconclusive: 22.4 µM [inhibitor, single point] |  |
| CCN1/C(=C2/SC(=S)N(C)C2=O)C=Cc2cc(C)ccc21 | inactive |  |
| CCc1ccc2c(CN3CCc4ccccc43)cc(=O)oc2c1 | inconclusive: 35.5 µM [inhibitor, single point] |  |
| O=C(NCCCN1CCOCC1)c1cc(-c2ccc(Br)cc2)nc2ccccc12 | inconclusive: 18.4 µM [inhibitor, single point] |  |
| Cc1[nH]c(=S)[nH]c(=O)c1Cc1ccc(OCC(C)C)cc1 | inactive |  |
| Cc1onc(-c2c(Cl)cccc2Cl)c1C(=O)Nc1nc(C(C)(C)C)cs1 | inconclusive: 29.1 µM [inhibitor, single point] |  |
| Cc1ccc(NS(=O)(=O)c2c(C(=O)N3CCCCCC3)c(C)n(C)c2C)cc1F | inconclusive: 20.6 µM [inhibitor, single point] |  |
| NN(Cc1ccccc1)C(=S)Nc1ccc(Cl)c(Cl)c1 | inactive |  |
| O=C(CSc1nccc(=O)[nH]1)Nc1cc(C(F)(F)F)ccc1N1CCOCC1 | inactive |  |
| CCOC(=O)N1CCN(C(=O)CSc2ccc(-c3ccc(OC)cc3)nn2)CC1 | inactive |  |
| O=C1NC[C@H](c2ccccc2)OC(=O)[C@H](Cc2ccc(F)cc2)C/C=C\C[C@H]1CC(=O)N(CCO)Cc1ccccc1 | active: 10.3 µM |  |
| CC(=O)c1c(C)n(-c2cccc(C)c2)c2ccc(OC(=O)COc3ccccc3)cc12 | inconclusive: 29.1 µM [inhibitor, partial curve, poor fit] |  |
| COc1cccc(-c2cc(C(=O)NCCc3ccc(C)cc3)[nH]n2)c1 | inactive |  |
| CCc1noc(C)c1C(=O)OCC(=O)Nc1nc(-c2ccc(F)c(F)c2)cs1 | inconclusive: 20.6 µM [inhibitor, single point] |  |
| c1csc(-c2nc3ccccc3s2)c1 | inconclusive: 11.6 µM [inhibitor, partial curve] |  |
| CC(=O)c1c(N2CCCCC2)nc(=S)n(-c2ccccc2)c1C | active: 11.6 µM |  |
| COc1ccc(C(c2c(O)nc[nH]c2=O)c2c(O)nc[nH]c2=O)cc1 | inactive |  |
| NC(c1ccccc1)c1csc(NC(=O)NCCc2ccccc2)n1 (stereo unspecified) | inconclusive: 29.1 µM [inhibitor, single point] |  |
| CC(C)(C)c1nnc(NS(=O)(=O)c2cc(Cl)ccc2Cl)s1 | inactive |  |
| COc1cccc(/C=C/C(=O)OCC(=O)c2ccc(C)c(C)c2)c1OC | inactive |  |
| O=c1[nH]c2ccccc2n2c(=S)[nH]nc12 | inactive |  |
| COc1cc(C)c(S(=O)(=O)NC2CC(C)(C)NC(C)(C)C2)cc1C | inactive |  |
| CCOC(=O)C1CCN(C(=O)C2CCCN(c3ncnc4c3nc3n4CCCCC3)C2)CC1 (stereo unspecified) | inconclusive: 23.1 µM [inhibitor, single point] |  |
